Data on 56 compounds can be found in ChEMBL document CHEMBL1157539, “Thousands of chemical starting points for antimalarial lead identification” (Nature, 2010).

Several values for one entry are separate records, joined by “and”; a condition that tells them apart may be missing. Equal values may be shown once. The full ranking holds about 13,000 compounds; the median of “IFI” is about 4, and the highest 2% start at about 17. The list shows a part of the results.

This assay can be described thus: GSK_TCMDC: Inhibition Frequency Index (IFI). The number of non-kinase HTS assays where a compound showed > 50 % inhibition, expressed as a percentage of the number of such assays in which the compound was tested (-0 is zero). It is filed as functional.
Regarding `CCNc1cc(C(=O)N[C@@H](Cc2ccccc2)[C@H](O)CNC2CCC(C(C)(C)C)CC2)cc(N2CCCC2=O)c1` (stereo partly specified), the IFI was found to be 2.92%.
The same measure for `CC=Cc1cc(Cc2c[nH]c(=N)[nH]c2=N)cc(CCC)c1OC`: 2.27%.
The same measure for `CCc1cc2c(cc1CC)CC(NC[C@@H](O)c1ccc(O)c3[nH]c(=O)ccc13)C2`: 6.45%; for `c1ccc(-c2nc(NCCCn3ccnc3)cc(-c3ccncc3)n2)cc1`: 1.06%; for `Oc1ccc(Nc2ccnc3cc(Cl)ccc23)cc1`: 3.57%.
Compound `CC(C)(C)OC(=O)NCc1ccc(Nc2nnc(-c3ccc(OCC(=O)NCc4ccc(C(C)(C)C)cc4)c([N+](=O)[O-])c3)o2)cc1` had an IFI of 3.1%.
`Fc1cc(CN2CCCC2)ccc1OCCCN1CCN(c2cccc(Cl)c2Cl)CC1` showed an IFI of 10.3%.
`CCCN1CCN(CCCCNc2c3ccccc3nc3ccccc23)CC1`: the IFI amounted to 2.94%.
The same measure for `CCc1ccccc1N1CCN(CCCC(=O)c2ccc(NC(=O)c3ccc(Cl)cc3)cc2)CC1`: 0.89%; for `CCCCN1CCCN(Cc2cccc(NC(=O)c3ccc(-c4ccccc4)cc3)c2)CC1`: 4.76%.
With `CN(Cc1cc(C(F)(F)F)cc(C(F)(F)F)c1)C(=O)C(Cc1ccc(F)cc1)C1CCCNC1` (stereo unspecified), the IFI amounted to 5.41%.
`CC1CN(Cc2ccc(-c3cccc(-c4nc5cc(F)ccc5[nH]4)c3)cc2)CC(C)O1` (stereo unspecified): the IFI is 4.29%.
With `CN(C)c1ccc(CN2CCCC(CNC(=O)c3ccc(-c4cccc(C(F)(F)F)c4)s3)C2)cc1` (stereo unspecified), the IFI was determined as 10.7%.
The same measure for `COc1ccc2nccc(N3CCC(SCCNCc4cc5c(cn4)OCCO5)C3)c2n1` (stereo unspecified): 6.34%; for `O=C(/C=C/c1ccc(Cl)c(Cl)c1)NCCCCCN1CCC(NC(=O)Nc2ccc(Cl)c(C(F)(F)F)c2)CC1`: 13.3%.
The same measure for `Nc1nc(Nc2cccc(Cl)c2)ncc1C(=O)NCc1ccncc1`: 3.33%; for `CN(C)CCOc1ccc2nc(-c3cccc(OCc4ccccc4)c3)[nH]c2c1C#N`: 9.09%.
`NS(=O)(=O)c1cccc(Nc2nc(N[C@@H]3CCNC3)nc3cc[nH]c(=O)c23)c1` displayed an IFI of 18.2%.
The same measure for `COc1c(C2CCN(CCCCNC(=O)c3ccc(-c4ccc(Cl)cc4)c(OCC(N)=O)c3)CC2)ccc2c1CCCC2`: 12.9%.
The same measure for `Cc1ccc(-n2c(=O)c3c(n4c(SC(C)C)nnc24)-c2ccccc2CC32CCCCC2)cc1`: -0%; for `Cc1cc(C(=O)Nc2ccc3c(ccn3C3CCCN(Cc4ccc(C(F)(F)F)cc4F)CC3)c2)no1` (stereo unspecified): 3.13%.
The same measure for `Cc1cc(N[C@@H](Cc2ccccc2)C(=O)NCc2cccs2)nc(NCCOc2ccccc2)n1`: 9.09%; for `CC(=O)N(C)c1cccc(C(=O)Nc2ccc(-c3cccc(-c4nc5cccc(C)c5[nH]4)c3)cc2)c1`: 7.76%; for `Cc1cccc2nc(-c3ccc(-c4cccc(NC(=O)Nc5ccsc5)c4)s3)[nH]c12`: 4.04%.
In turn, `CC(=O)Nc1cccc(CN(Cc2ccc(-c3ccc(CNCc4cccnc4)cn3)cc2)C(=O)Cc2cccnc2)c1` yielded an IFI of -0%.
In turn, `COc1ccc2c(N/N=C/c3ccccc3[N+](=O)[O-])cc(C)nc2c1` showed an IFI of 0.77%.
The value for `Clc1ncccc1-c1nc(NCCC(c2ccccc2)c2ccccc2)no1` was 4.84%; that for `CC(C)c1ccc(NC(=O)N[C@H]2CCN(CCCCCNC(=O)/C=C/c3ccc(Cl)c(Cl)c3)C2)cc1` was 7.86%; that for `COc1ccc(NC(=O)[C@H](Cc2ccccc2)Nc2cc(C)nc(Nc3ccccc3)n2)cc1` was 2.5%.
The value for `O=C(Nc1cccc(CN2CCCN(CCc3ccccc3)CC2)c1)c1cc2ccccc2s1` was 7.75%.
The same measure for `CCNc1cc(C(=O)N[C@@H](Cc2ccccc2Cl)[C@H](O)CNC2CCCCC2)cc(N2CCCCS2(=O)=O)c1`: 2.88%; for `CN1CCN(c2cc3c(cc2Cl)CCN3C(=O)Cc2ccc(Cl)c(NC(=O)Nc3cccc([N+](=O)[O-])c3)c2)CC1`: 5%; for `CCOc1ccccc1C=CC(=O)Nc1ccc2nc(N3CCN(C)CC3)cc(C)c2c1`: 6.85%.
Turning to `CCCOc1ccc(CNCCCCCCNCc2ccc(OCCC)c3ccccc23)c2ccccc12`, the IFI is 15.6%.
The value for `COc1ccc(C2C(C(=O)Nc3cc(Cl)c(OC)cc3OC)c3ccccc3C(=O)N2C)cc1` (stereo unspecified) was 0.69%; that for `O=[N+]([O-])c1ccc(-c2nc3cc(C4=NC5CCCCC5N4)ccc3[nH]2)cc1` (stereo unspecified) was 1.39%.
`O=C(NCc1ccccc1)c1nn(CCCN2CCC(N3CCCC3)CC2)cc1-c1ccc(Cl)c(Cl)c1` returned an IFI of 9.46%.
The same measure for `Cc1noc(-c2ccc(O)cc2O)c1-c1ccc2c(c1)OCCCO2`: 3.76%; for `Cc1[nH]c(C)c(-c2ccc(Oc3ccc(OC(F)(F)F)cc3)cc2)c(=O)c1Br`: 1.94% and -0%.
The same measure for `O=C(NC1CCC(CCN2Cc3cccc(F)c3C2)CC1)c1cccc(-c2cccnc2)c1` (stereo unspecified): -0%.
In turn, `O=c1nc2[nH]c3ccccc3n2c(=O)[nH]1` returned an IFI of -0%.
In the case of `N=C(N)Nc1ccc(NC(=O)Nc2ccc(NC(=N)N)cc2)cc1`, the IFI was determined as 1.47%.
The value for `COc1ccc(-c2nc(NC(=O)COc3ccc(C(C)=O)cc3)sc2C)cc1` was 2.99%; that for `CC(C)(C)OC(=O)N[C@@H](Cc1ccccc1)C(=O)Nc1cccc(-c2cccc(NC(=O)[C@H](Cc3ccccc3)NC(=O)OC(C)(C)C)c2)c1` was 0.72%.
The same measure for `N=C(N)NN=Cc1c[nH]c2ccc(-c3ccccc3)cc12`: 3.68%; for `NC[C@H](CC1CCCCC1)NC(=O)c1ccc(-c2ccnc3[nH]ccc23)s1`: 22.2%; for `Cc1cccc(Cn2c(C(N)=O)nn(-c3ccc([N+](=O)[O-])cc3C#N)c2=S)c1`: 2.72%.
The same measure for `CC(CN(C)C)C(=O)Nc1ccc(-c2ccc(-c3nc4ccccc4[nH]3)s2)cc1` (stereo unspecified): 4.5%.
On to `O=[N+]([O-])c1cccc(/C=N/Nc2ccnc3ccc(C(F)(F)F)cc23)c1`, for which the IFI was -0%.
For the compound `O=[N+]([O-])c1cccc(NC(=S)N2CCCN(Cc3ccc(Cl)cc3Cl)CC2)c1`, the IFI was 2.99%.
The compound `COc1cc(CCON2C(N)=NC(N)=NC2(C)C)cc(OC)c1OC` came in with an IFI of 3.73%.
The value for `Cc1cccc2nc(-c3ccc(-c4cccc(CNCc5cccc(N)c5)c4)s3)[nH]c12` was 7.62%; that for `Cc1cccc2nc(-c3cccc(-c4cccc(CN5CCCC5CN)c4)c3)[nH]c12` (stereo unspecified) was 4.95%; that for `CCc1nc(N)nc(N)c1-c1ccc(F)c(F)c1` was 1.49%.
The value for `COc1ccc2nc(N=C3NC4(c5ccccc5)NC(=Nc5nc6ccc(OC)cc6[nH]5)NC4(c4ccccc4)N3)[nH]c2c1` (stereo unspecified) was 2.99%; that for `O=C(Nc1ccncc1)c1cn(-c2ccccc2)nc1-c1cccs1` was 3.33%.
